# Results as given in the antibiotic and cytotoxicity screens of Wong et al. (2023).
# The list shows a part of the results.
# Assays:
# HSkMC = human skeletal muscle cells; assay: cytotoxicity call (relative viability < 0.9); conditions: 10 µM
# HepG2 = assay: cytotoxicity call (relative viability < 0.9); conditions: 10 µM
# S. aureus RN4220 = assay: growth inhibition call (relative growth <= 0.2); conditions: 50 µM
SMILES,cytotoxicity call (HSkMC),cytotoxicity call (HepG2),growth inhibition call (S. aureus RN4220)
C[C@H]1CN([C@@H](C)CO)C(=O)Cc2cc(NS(C)(=O)=O)ccc2O[C@H]1CN(C)S(=O)(=O)c1ccc(Cl)cc1,inactive,inactive,inactive
C[C@@H](O)[C@@H](O)[C@@H](O)C/C=N/NC(=O)c1ccccn1,inactive,inactive,inactive
C[C@@H]1CN([C@H](C)CO)C(=O)c2cc(NC(=O)Nc3ccccc3)ccc2O[C@H]1CN(C)Cc1ccc(Cl)c(Cl)c1,inactive,inactive,inactive
C[C@@H]1CN([C@@H](C)CO)C(=O)c2cccc(NC(=O)c3ccc(-c4nccs4)cc3)c2O[C@@H]1CN(C)C(=O)Nc1ccc(C(F)(F)F)cc1,inactive,active,inactive
C[C@H](CO)N1C[C@H](C)[C@@H](CN(C)Cc2ccc(Oc3ccccc3)cc2)Oc2ccc(NC(=O)Nc3ccc(F)cc3)cc2C1=O,inactive,inactive,inactive
Cc1ccccc1S(=O)(=O)N1C[C@@H](O)COC[C@H]2O[C@@H](CC(=O)NCc3ccccc3Cl)CC[C@@H]21,inactive,inactive,inactive
C[C@@H]1CCCCO[C@H](CN(C)Cc2ccccc2)[C@H](C)CN([C@H](C)CO)C(=O)c2cc(NC(=O)c3ccccc3)ccc2O1,inactive,inactive,inactive
Cc1noc(C)c1NC(=O)N(C)C[C@@H]1Oc2ccc(NS(C)(=O)=O)cc2CC(=O)N([C@@H](C)CO)C[C@H]1C,inactive,inactive,inactive
Fc1cccc2c(Cl)ccnc12,inactive,inactive,inactive
CO[C@@H]1CN(C)C(=O)c2cc(NS(=O)(=O)c3ccccc3)ccc2OC[C@H](C)N(C(=O)NC(C)C)C[C@@H]1C,inactive,inactive,inactive
Cc1noc(C)c1NC(=O)N(C)C[C@H]1Oc2ncc(C#CCN(C)C)cc2C(=O)N([C@@H](C)CO)C[C@@H]1C,inactive,inactive,inactive
NC[C@@H]1CC(=O)N(c2ccccc2)C1,inactive,active,inactive
O=C(C[C@@H]1C[C@@H]2c3cc(NS(=O)(=O)c4ccc(F)cc4)ccc3O[C@@H]2[C@@H](CO)O1)NCc1cccnc1,inactive,inactive,inactive
C[C@H]1O[C@@H](O[C@H]2[C@@H](O)C[C@H](O[C@H]3[C@@H](O)C[C@H](O[C@H]4CC[C@@]5(C)[C@H](CC[C@@H]6[C@@H]5C[C@@H](O)[C@@]5(C)[C@@H](C7=CC(=O)OC7)CC[C@]65O)C4)O[C@@H]3C)O[C@@H]2C)C[C@H](O)[C@@H]1O,active,active,inactive
CCN(CC)CC#CCOC(=O)C(O)(c1ccccc1)C1CCCCC1.Cl (configuration not stated),inactive,inactive,inactive
O=C(Nc1ccc(F)cc1)N[C@@H]1C[C@@H]2O[C@@H](CO)CC[C@@H]2O[C@@H]1CCc1ccc(-c2ccccc2)cc1,inactive,inactive,inactive
CN1C(=O)c2cc(NC(=O)c3ccc(F)cc3)ccc2OC[C@H]2O[C@H](CC(=O)N3CCOCC3)CC[C@H]21,inactive,inactive,inactive
COc1ccc(S(=O)(=O)Nc2ccc3c(c2)C(=O)N([C@@H](C)CO)C[C@@H](C)[C@H](CN(C)Cc2ccc(C(=O)O)cc2)OCCCC[C@@H](C)O3)cc1,inactive,inactive,inactive
C[C@@H]1CN([C@H](C)CO)C(=O)c2cc(NC(=O)Nc3ccc4c(c3)OCO4)ccc2O[C@@H](C)CCCCO[C@H]1CN(C)S(=O)(=O)c1ccc(Cl)cc1,inactive,active,inactive
CC(C)NC(=O)N(C)C[C@@H]1OCCCC[C@@H](C)Oc2ccc(NC(=O)CCCCCC(=O)Nc3ccccc3N)cc2C(=O)N([C@H](C)CO)C[C@@H]1C,inactive,inactive,inactive
C[C@H](CO)N1C[C@H](C)[C@H](CN(C)S(C)(=O)=O)Oc2ccc(NC(=O)Cc3cn(C)c4ccccc34)cc2CC1=O,inactive,inactive,inactive
CCOCCCNc1nc2c([nH]1)c(=O)n(C)c(=O)n2C,inactive,inactive,inactive
C[C@@H]1CCCCO[C@@H](CN(C)C(=O)CCC(F)(F)F)[C@H](C)CN([C@@H](C)CO)C(=O)c2cc(NC(=O)c3ccccc3)ccc2O1,inactive,inactive,inactive
C[C@@H]1CN([C@@H](C)CO)C(=O)c2cccc(NC(=O)Nc3ccc(F)cc3)c2O[C@@H]1CN(C)Cc1ccc(-c2ccccc2)cc1,active,active,inactive
O=C(O)COC(=O)Cc1ccccc1Nc1c(Cl)cccc1Cl,inactive,inactive,inactive
C[C@@H]1CCCCO[C@H](CN(C)C(=O)Nc2ccccc2)[C@@H](C)CN([C@H](C)CO)C(=O)c2cc(NC(=O)c3ccccc3)ccc2O1,inactive,inactive,inactive
C[C@H]1CN([C@@H](C)CO)C(=O)c2cccc(NC(=O)Nc3ccc(C(F)(F)F)cc3)c2O[C@@H]1CN(C)Cc1ccc(Oc2ccccc2)cc1,inactive,inactive,inactive

SMILES,cytotoxicity call (HSkMC),cytotoxicity call (HepG2),growth inhibition call (S. aureus RN4220)
O=C(C[C@H]1C=C[C@@H](NS(=O)(=O)c2ccc(F)cc2)[C@@H](CO)O1)NCCN1CCCCC1,inactive,inactive,inactive
CN(C)CC#Cc1ccc([C@H]2[C@@H](CO)N3C(=O)CN(C(=O)c4cccnc4)C[C@H]23)cc1,inactive,inactive,inactive
C[C@@H]1CN([C@@H](C)CO)C(=O)c2cc(C#Cc3cccc(F)c3)cnc2O[C@@H]1CN(C)C(=O)C1CCOCC1,inactive,inactive,inactive
COc1ccc(NC(=O)Nc2ccc3c(c2)CC(=O)N([C@H](C)CO)C[C@@H](C)[C@@H](CN(C)Cc2ccc(C(=O)Nc4ccccc4N)cc2)O3)cc1,inactive,active,inactive
CC(C)CC#Cc1cnc2c(c1)C(=O)N([C@@H](C)CO)C[C@H](C)[C@@H](CN(C)C(=O)CN1CCOCC1)O2,inactive,inactive,inactive
CN(C)CCCCCCNC(=O)[C@H]1C[C@H]2C(=O)N3CCC[C@H]3C(=O)N2[C@H]1c1cccc(OCCO)c1,inactive,inactive,inactive
CC(C)NC(=O)Nc1ccc2c(c1)C(=O)N([C@H](C)CO)C[C@H](C)[C@H](CN(C)C(=O)Nc1ccc3c(c1)OCO3)O2,inactive,inactive,inactive
C[C@@H]1CCCCO[C@@H](CN(C)C(=O)Nc2ccc(F)cc2)[C@H](C)CN([C@H](C)CO)C(=O)c2cc(NC(=O)CCC(F)(F)F)ccc2O1,inactive,inactive,inactive
Cc1ccc(S(=O)(=O)N(C)C[C@@H]2Oc3ccc(NC(=O)Nc4ccc(C(F)(F)F)cc4)cc3CC(=O)N([C@H](C)CO)C[C@@H]2C)cc1,active,active,inactive
COC(=O)C[C@@H]1CC[C@@H]2[C@H](COC[C@H](O)CN2S(=O)(=O)c2cn(C)cn2)O1,inactive,inactive,inactive
C/C=C1/[C@H](O[C@@H]2O[C@H](CO)[C@@H](O)[C@H](O)[C@H]2O)OC=C(C(=O)OC)[C@H]1CC(=O)OCCc1ccc(O)c(O)c1,inactive,inactive,inactive
C[C@@H]1CCCCO[C@@H](CN(C)C(=O)C2CCCCC2)[C@@H](C)CN([C@H](C)CO)C(=O)c2cc(NC(=O)Nc3ccc(C(F)(F)F)cc3)ccc2O1,inactive,inactive,inactive
C[C@H](NC(=O)[C@H]1N[C@H]2c3ccc(-c4ccc(C(=O)N(C)C)cc4)c(=O)n3C[C@H]2[C@@H]1CO)c1ccccc1,inactive,inactive,inactive
C[C@@H]1CN([C@H](C)CO)C(=O)c2cc(NC(=O)Cc3ccccc3)ccc2O[C@@H]1CN(C)C(=O)Nc1ccc(C(F)(F)F)cc1,inactive,inactive,inactive
C1CCN=C(NC2CCCCC2)CC1,inactive,inactive,inactive
C[C@@H]1CN([C@H](C)CO)C(=O)c2cc(NS(=O)(=O)c3cccs3)ccc2O[C@@H](C)CCCCO[C@@H]1CN(C)S(=O)(=O)c1cn(C)cn1,inactive,inactive,inactive
C[C@H](CO)N1C[C@H](C)[C@@H](CN(C)C(=O)Nc2ccc3c(c2)OCO3)Oc2ccc(NC(=O)c3ccncc3)cc2CC1=O,inactive,inactive,inactive
C[C@@H]1CN([C@H](C)CO)C(=O)c2ccccc2-c2ccccc2CO[C@H]1CN(C)C(=O)Nc1ccc(F)cc1,inactive,inactive,inactive
C[C@@H]1CCCCO[C@H](CN(C)Cc2ccccc2)[C@@H](C)CN([C@@H](C)CO)C(=O)c2cc(NC(=O)Cc3ccccc3)ccc2O1,inactive,active,inactive
C[C@@H]1CN([C@H](C)CO)S(=O)(=O)c2ccc(C#CC(C)(C)O)cc2O[C@H]1CN(C)C(=O)C1CCCCC1,inactive,inactive,inactive
C[C@@H]1CN([C@H](C)CO)C(=O)c2cccc(NC(=O)Nc3ccccc3)c2O[C@H]1CN(C)Cc1ccc(C(F)(F)F)cc1,active,active,inactive
C[C@@H]1Cn2nncc2CO1,inactive,inactive,inactive
COc1cccc(OC)c1C(=O)NC1C(=O)N2C1SC(C)(C)C2C(=O)[O-].[Na+] (configuration not stated),inactive,inactive,active
CC(C)NC(=O)Nc1ccc2c(c1)C(=O)N([C@@H](C)CO)C[C@H](C)[C@@H](CN(C)C(=O)NC1CCCCC1)O2,inactive,inactive,inactive
C[C@H]1CCCCO[C@@H](CN(C)C(=O)Cc2ccccc2)[C@@H](C)CN([C@@H](C)CO)C(=O)c2cc(NC(=O)c3ccccc3)ccc2O1,inactive,inactive,inactive
C[C@H](CO)N1C[C@H](C)[C@@H](CN(C)C(=O)CCC(F)(F)F)OCCCC[C@H](C)Oc2ccc(NS(=O)(=O)c3ccc(F)cc3)cc2C1=O,inactive,inactive,inactive
C[C@H](CO)N1C[C@H](C)[C@H](CN(C)Cc2ccc(Cl)c(Cl)c2)Oc2ccc(NC(=O)Nc3ccc(F)cc3)cc2C1=O,active,active,inactive
